From PubChem BioAssay AID1508624 (National Center for Advancing Translational Sciences (NCATS), 2021)
In all, about 48,000 compounds went through this assay and about 120 (0.25%) were called active. Inconclusive results (about 4%) are left out. Calls follow the shape of the dose curve; as a rule, active = well fitted activation curve with a large enough effect; inconclusive = small, poorly fitted or top-dose-only effect, or another doubt; inactive = no such curve, though single readings can be large or run the other way. The list shows a part of the results.

Assay: Primary qHTS for Identification of Small Molecule Activators of Huntingtin-Antisense Promoter Activity; also: nearly all actives have a fitted effect of over 55% in size
Settings: HEK293 HTT-AS promoter firefly luciferase reporter, 24 h; series mostly up to 57.5 µM; activity change, positive = activation: at the top concentration
How it was run: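 HEK293 luciferase promoter-reporter cells (2,500/well) plated 24 h, then compounds added at up to 57.5 uM final for 24 h at 37 °C. Firefly luminescence by Dual-Glo, normalized to vehicle (0%) and zero RLU (-100%).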

Activity change, positive = activation, inactive:
O=C(CCC(=O)N1Cc2ccccc2Oc2ncccc21)NCc1ccccc1Cl -15.3%, COc1ccc(C(c2c(O)cc(C)n(Cc3ccco3)c2=O)N2CCN(c3ccccc3)CC2)cc1 (stereo unspecified) 9.11%, Cc1ccccc1-n1nc(CO)c(C(=O)NCCc2ccccc2)n1 -14.1%, COc1cccc(NC(=O)C(=O)NCC(c2cccnc2)N2CCN(c3ccccc3)CC2)c1 (stereo unspecified) 7.73%, CC1CCc2c(sc(NC(=O)c3ccccc3)c2C(=O)Nc2ccccc2)C1 (stereo unspecified) -9.26%, COc1ccc(OC)c(CNc2ncnc3onc(-c4ccc(Cl)cc4)c23)c1 -39.5%, CCOC(=O)CSc1nc2ccc(NC(=O)COc3ccccc3)cc2s1 -5.81%, Cc1cccc(CSc2cn(CC(=O)N3CCCCCC3)c3ccccc23)c1 22.8%, CCOC(=O)c1cc(OC(=O)c2cccc(C)c2)n(-c2ccccc2)n1 -18.4%, COCc1cc(C)nc2sc3c(c12)NC(c1ccc(NC(C)=O)cc1)N(c1ccc(C)cc1)C3=O (stereo unspecified) 12.2%, COc1cccc(CNc2ncnc3onc(-c4ccc(F)cc4)c23)c1 -33.9%, O=c1c2ccccc2n(Cc2cccc(Cl)c2)c(=O)n1CCc1ccccc1 -21%, C[C@]12CCC3=C4CCC(=O)C=C4CC[C@@H]3[C@H]1CC[C@@]2(O)CC#N -14.4%, COc1cccc2cc(-c3nc4sc(C(=O)Nc5ccc(F)cc5F)c(C)c4c(=O)[nH]3)c(=O)oc12 -3.95%, O=C1c2ccccc2C(=O)c2c1ccc(O)c2O 5.18%, COCc1cc(C)nc2sc3c(=O)n(-c4cc(C)ccc4C)nnc3c12 -8.39%, CCOC(=O)c1ccccc1NC(=O)N1CCN2CCCCC2C1 (stereo unspecified) -8.15%, Cc1ccc(C)c(N2CCN(c3ncnc4onc(C)c34)CC2)c1 -15.7%, CC(=O)Nc1nonc1-c1nnc(SCC(=O)Nc2cc(C)ccc2C)n1-c1ccccc1 -17.8%, Cc1cccc(CC(=O)NC2CC(=O)N(c3cccc(F)c3)C2)c1 (stereo unspecified) 2.98%, Cc1cc(N2CCCCC2)nc2ccc(NC(=O)c3ccc(F)cc3)cc12 -24.2%, CCOC(=O)c1c(NC(=O)CSc2cn(CCNC(=O)c3ccc(OCC)cc3)c3ccccc23)sc2c1CCCC2 -41.1%, COc1ccc(OC)c(NC(=O)C2CCN(S(=O)(=O)c3ccc(C)cc3)CC2)c1 -3.73%, COCCNC(=O)CSc1nc(-c2ccc(F)cc2)[nH]c1-c1ccc(Cl)cc1 -21.7%, CC(CNC(=O)Cn1ncc2c3ccccc3n(Cc3cccc(Cl)c3)c2c1=O)c1ccccc1 (stereo unspecified) -11.7%, Nc1nc(=S)c2[nH]cnc2[nH]1, CCOc1ccc(C(=O)Nc2ccc(S(=O)(=O)N(Cc3ccccc3)c3ccccc3)cc2)cc1 -94.5%, COc1ccc(OC)c(C2CC(=O)N(c3cccc(C)c3)C3=C2C(=O)OC3)c1 (stereo unspecified) -20.2%, O=C(COc1ccccc1)Nc1ccc(OCc2cc(=O)n3ccsc3n2)cc1 4.33%, Cc1cc(F)ccc1Nc1nc2ccccc2n2nnnc12 -1.57%, CN(C(=O)CSc1nc2ncccc2o1)c1ccc(F)cc1 -7.59%, O=C(CSc1nc2cc3ccccc3cc2[nH]1)Nc1cccc(C(F)(F)F)c1 7.44% [at 11.5 µM, percent change from vehicle, -100% = no light], CC(C)CCNC(=O)C(=O)Nc1c2c(nn1-c1ccccc1)CS(=O)(=O)C2 -4.13%, CNS(=O)(=O)c1cn(CC(=O)Nc2ccc(OC)c(Cl)c2)cc1S(=O)(=O)NC -9.36%, COc1ccc(NC(=O)C(=O)NCCc2ccccc2)cc1OC -5.62%, CC(C)CCNC(=O)CN1C(=O)COc2ccc(S(=O)(=O)N3CCOCC3)cc21 -6.08%, CC(C)c1ccc(NC(=O)C2CCCN(S(=O)(=O)c3ccc(Br)s3)C2)cc1 (stereo unspecified) -17.8%, COc1cccc(C(=O)Nc2ccccc2C(=O)OCc2cc(=O)n3nc(C)sc3n2)c1 -1.64%, CCOC(=O)c1cccc(NC(=O)c2cc3c(Cl)nc4ccc(C)cc4c3s2)c1 -12.4%, COc1ccc(-n2cc(-c3ccccc3)c3c(SC(C)C(C)=O)ncnc32)cc1 (stereo unspecified) -21.8%, CCc1ccc(NS(=O)(=O)c2ccc3[nH]cc(C(=O)NC4CCCC4)c(=O)c3c2)cc1 -29%, Fc1ccc(-c2cc(-c3nc(-c4cccc(Cl)c4)no3)[nH]n2)cc1 -3.5%, c1ccc(CNc2nc(NCc3ccccc3)c3ccccc3n2)cc1 -67%, COc1cc(OC)c(OC)cc1CN1CCc2nc(N3CCN(c4ncccn4)CC3)ncc2C1 -28.9%, COc1ccccc1CNC(=O)CSc1ncc2c(n1)-c1ccccc1N(Cc1ccc(C)cc1)S2(=O)=O -8.46%, COc1ccc(-c2noc(C3CC(=O)N(c4ccc(C)c(F)c4)C3)n2)c(OC)c1 (stereo unspecified) -12.1%, CCN1CCN(C(=O)c2ccc3c(c2)N(Cc2cccc(Cl)c2)C(=O)c2ccccc2S3(=O)=O)CC1 -9.33%, CCc1nnc(SCc2ccc(F)cc2Cl)c2cc3sccc3n12 -2.43%, Cc1ccc(C)c(NC(=O)C(C)n2c(=O)cc(C(F)(F)F)c3c(C)nn(C)c32)c1 (stereo unspecified) -7.32%, CCc1ccc(CNC(=O)c2ccc3c(c2)nc2n3CCOC2)cc1 -7.66%, CCOc1ccc(Nc2oc(/C=C/c3ccc(F)cc3)nc2C#N)cc1 4.81%, COc1ccc(CNc2nc3c(S(=O)(=O)c4ccccc4)nnn3c3ccc(Cl)cc23)cc1 13.4%, Cc1ccc(NC(=O)C(=O)NCC(c2cccnc2)N2CCN(C)CC2)cc1C (stereo unspecified) -12.9%, Cc1ccc(OCC(=O)Nc2ccc(C(=O)OCc3cc(=O)n4nc(C5CC5)sc4n3)cc2)cc1 -22.3%, COc1ccc(NC(=O)c2oc3c(c2C)-c2nn(Cc4c(F)cccc4Cl)cc2CC3)c(OC)c1 -15.9%, CCc1ccc(NC(=O)c2cc3ccccn3n2)cc1 28.5% [at 11.5 µM, percent change from vehicle, -100% = no light], O=C(CSc1nc(=O)[nH]c2c1CCCC2)Nc1cc(C(F)(F)F)ccc1Cl -41.1%, Fc1ccccc1CNCCCSc1nnnn1-c1ccccc1 -3%, Cc1cc(C)c2c(CC(=O)Nc3nnc(C(C)C)s3)coc2c1 -11.4%, CCOC(=O)c1ccccc1NC(=O)CSc1ccc(-c2sc(-c3ccccc3)nc2C)nn1 -6.05%, Cc1cc(C)n(-c2nc3ccccc3nc2Nc2cccc(C(F)(F)F)c2)n1 3.87%
